In article PMC8912257 (Cell Host & Microbe, 2022):
Where two headings read alike, the source gives them in different places. Results are given in words; binding and its absence hold for the method and conditions named. For some assays here: In cells and extracts the contact can be indirect. Some binding calls cover weakened binding; strength is not graded here. For some assays here: Tags and fused reporters may be left off the sequences shown.

By UniProt entry, the sequences of proteins in these tests, tags left out. Where a name states a change or a piece, a line headed by the entry shows the natural chain unless it says otherwise.
UniProt P42224: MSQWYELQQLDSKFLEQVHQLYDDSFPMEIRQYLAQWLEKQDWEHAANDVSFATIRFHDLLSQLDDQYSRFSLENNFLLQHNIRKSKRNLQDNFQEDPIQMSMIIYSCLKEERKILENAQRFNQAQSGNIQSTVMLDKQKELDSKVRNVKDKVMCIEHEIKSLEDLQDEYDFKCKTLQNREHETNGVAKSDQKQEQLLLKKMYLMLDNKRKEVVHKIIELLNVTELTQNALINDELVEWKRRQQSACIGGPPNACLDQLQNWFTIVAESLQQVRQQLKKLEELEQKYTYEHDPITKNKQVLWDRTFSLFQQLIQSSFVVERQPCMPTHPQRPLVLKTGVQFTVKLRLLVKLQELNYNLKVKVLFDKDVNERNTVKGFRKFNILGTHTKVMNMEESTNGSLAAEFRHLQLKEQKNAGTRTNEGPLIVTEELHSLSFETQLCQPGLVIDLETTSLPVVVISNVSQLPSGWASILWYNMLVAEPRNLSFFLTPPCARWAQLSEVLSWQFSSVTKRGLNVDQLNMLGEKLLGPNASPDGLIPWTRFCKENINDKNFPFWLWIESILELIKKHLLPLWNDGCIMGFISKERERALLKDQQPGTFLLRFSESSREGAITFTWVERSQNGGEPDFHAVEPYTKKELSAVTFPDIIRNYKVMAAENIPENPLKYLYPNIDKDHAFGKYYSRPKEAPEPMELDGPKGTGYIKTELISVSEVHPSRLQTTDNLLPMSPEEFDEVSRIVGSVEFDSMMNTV
UniProt P52630: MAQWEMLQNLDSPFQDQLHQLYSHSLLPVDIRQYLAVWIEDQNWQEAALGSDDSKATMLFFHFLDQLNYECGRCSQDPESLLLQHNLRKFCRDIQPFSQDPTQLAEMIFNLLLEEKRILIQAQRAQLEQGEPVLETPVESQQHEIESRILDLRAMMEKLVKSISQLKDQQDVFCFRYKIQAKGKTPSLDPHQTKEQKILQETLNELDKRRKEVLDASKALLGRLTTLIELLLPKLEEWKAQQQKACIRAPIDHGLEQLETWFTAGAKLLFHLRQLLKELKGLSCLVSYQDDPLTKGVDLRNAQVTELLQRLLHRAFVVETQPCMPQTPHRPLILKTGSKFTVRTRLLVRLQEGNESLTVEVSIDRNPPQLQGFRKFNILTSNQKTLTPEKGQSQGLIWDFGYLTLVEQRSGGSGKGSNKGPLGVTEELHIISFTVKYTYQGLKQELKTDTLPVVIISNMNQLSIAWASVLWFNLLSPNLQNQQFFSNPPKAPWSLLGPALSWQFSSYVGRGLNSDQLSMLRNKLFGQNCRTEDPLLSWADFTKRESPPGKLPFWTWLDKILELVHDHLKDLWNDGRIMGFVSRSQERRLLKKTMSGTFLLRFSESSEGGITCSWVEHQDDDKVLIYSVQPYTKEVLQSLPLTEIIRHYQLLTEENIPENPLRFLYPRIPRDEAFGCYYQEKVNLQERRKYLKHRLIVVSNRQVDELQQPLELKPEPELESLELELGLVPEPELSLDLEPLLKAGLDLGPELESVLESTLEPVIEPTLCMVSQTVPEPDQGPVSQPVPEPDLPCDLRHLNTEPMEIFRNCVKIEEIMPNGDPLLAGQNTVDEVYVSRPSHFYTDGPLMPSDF
UniProt P40763: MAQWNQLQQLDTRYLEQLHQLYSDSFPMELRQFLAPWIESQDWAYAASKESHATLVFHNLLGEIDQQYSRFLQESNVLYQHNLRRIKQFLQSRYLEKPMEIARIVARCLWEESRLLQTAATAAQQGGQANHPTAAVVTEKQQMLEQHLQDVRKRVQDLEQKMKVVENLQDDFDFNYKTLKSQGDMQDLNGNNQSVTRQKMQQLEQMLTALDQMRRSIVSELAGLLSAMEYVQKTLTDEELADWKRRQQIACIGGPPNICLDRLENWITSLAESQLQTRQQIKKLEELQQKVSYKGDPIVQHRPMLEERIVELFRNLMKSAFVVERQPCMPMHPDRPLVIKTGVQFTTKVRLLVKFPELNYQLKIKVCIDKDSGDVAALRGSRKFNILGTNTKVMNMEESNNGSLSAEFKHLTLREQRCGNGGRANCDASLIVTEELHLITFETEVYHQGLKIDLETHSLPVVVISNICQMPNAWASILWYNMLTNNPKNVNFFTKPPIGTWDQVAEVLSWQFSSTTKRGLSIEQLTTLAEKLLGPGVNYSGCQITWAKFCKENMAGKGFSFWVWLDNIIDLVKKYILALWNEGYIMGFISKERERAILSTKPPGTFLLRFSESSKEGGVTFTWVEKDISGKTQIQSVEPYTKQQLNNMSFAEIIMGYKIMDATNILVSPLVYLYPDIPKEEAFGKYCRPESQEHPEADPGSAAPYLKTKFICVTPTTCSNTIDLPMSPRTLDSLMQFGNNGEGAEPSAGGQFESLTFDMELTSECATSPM
UniProt P42229: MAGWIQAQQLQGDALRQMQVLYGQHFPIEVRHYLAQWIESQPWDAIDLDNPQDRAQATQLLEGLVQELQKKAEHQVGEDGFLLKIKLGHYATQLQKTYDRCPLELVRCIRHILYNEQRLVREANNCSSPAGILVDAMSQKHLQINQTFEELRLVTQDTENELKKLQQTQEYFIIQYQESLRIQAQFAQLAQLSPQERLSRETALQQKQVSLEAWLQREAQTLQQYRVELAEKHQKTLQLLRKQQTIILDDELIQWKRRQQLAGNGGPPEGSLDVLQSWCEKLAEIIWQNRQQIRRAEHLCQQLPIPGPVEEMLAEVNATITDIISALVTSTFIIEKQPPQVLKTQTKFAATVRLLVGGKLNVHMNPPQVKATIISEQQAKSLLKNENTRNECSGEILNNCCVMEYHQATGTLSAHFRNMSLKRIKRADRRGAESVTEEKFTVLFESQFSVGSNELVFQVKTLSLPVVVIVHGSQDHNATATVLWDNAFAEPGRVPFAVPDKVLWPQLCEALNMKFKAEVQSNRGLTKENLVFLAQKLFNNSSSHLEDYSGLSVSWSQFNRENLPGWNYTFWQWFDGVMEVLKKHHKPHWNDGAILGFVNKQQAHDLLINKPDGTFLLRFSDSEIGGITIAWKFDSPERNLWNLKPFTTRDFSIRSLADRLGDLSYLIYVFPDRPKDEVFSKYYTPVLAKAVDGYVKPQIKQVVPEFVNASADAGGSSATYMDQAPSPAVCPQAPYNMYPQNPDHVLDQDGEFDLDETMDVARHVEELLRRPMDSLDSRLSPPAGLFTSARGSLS
UniProt P51692: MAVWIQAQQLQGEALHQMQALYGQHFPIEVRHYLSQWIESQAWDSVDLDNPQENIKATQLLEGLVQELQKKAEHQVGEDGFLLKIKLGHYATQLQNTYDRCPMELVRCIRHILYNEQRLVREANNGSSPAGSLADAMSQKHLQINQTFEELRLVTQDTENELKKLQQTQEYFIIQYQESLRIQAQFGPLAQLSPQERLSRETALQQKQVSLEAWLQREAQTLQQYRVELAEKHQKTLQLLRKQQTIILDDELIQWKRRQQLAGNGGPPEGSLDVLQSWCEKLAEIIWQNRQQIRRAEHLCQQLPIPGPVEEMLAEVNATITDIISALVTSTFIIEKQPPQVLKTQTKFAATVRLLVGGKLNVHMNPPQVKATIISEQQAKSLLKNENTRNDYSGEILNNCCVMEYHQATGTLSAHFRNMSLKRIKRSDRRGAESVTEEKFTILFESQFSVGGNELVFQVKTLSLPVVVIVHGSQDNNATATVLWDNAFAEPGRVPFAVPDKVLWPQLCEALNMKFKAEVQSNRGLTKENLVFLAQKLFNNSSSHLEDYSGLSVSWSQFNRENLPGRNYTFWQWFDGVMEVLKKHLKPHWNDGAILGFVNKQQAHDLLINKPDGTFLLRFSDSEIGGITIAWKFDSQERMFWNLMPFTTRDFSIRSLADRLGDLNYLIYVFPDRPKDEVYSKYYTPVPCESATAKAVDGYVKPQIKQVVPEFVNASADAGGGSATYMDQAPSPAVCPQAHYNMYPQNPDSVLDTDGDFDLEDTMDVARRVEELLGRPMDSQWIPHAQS

T1: TAP-tagged 018^AGA (vaccinia virus strain Western Reserve) (UniProt P17356)
T1 sequence: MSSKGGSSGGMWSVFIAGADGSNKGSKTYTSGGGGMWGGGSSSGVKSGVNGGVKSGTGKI

T2: TAP-tagged VACV protein 018 (vaccinia virus strain Western Reserve) (UniProt P17356)
T2 sequence: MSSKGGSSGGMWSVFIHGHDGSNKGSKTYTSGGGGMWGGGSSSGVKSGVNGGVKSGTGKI

T3: TAP-018 produced in a cell-free system (vaccinia virus strain Western Reserve) (UniProt P17356)
T3 sequence: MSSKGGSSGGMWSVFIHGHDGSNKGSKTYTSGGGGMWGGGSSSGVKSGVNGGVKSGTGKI


How the values were obtained:
[1] = target: T1, TAP-tagged 018^AGA (vaccinia virus strain Western Reserve); assay: pull-down
[2] = target: T2, TAP-tagged VACV protein 018 (vaccinia virus strain Western Reserve); assay: pull-down
[3] = target: T3, TAP-018 produced in a cell-free system (vaccinia virus strain Western Reserve); assay: pull-down
[4] = target: T2, TAP-tagged VACV protein 018 (vaccinia virus strain Western Reserve); assay: pull-down; remark: listed apart in the source
[5] = target: Full-length STAT1 protein (unphosphorylated, U-STAT1) (UniProt P42224); assay: ITC; both purified
[6] = target: Full-length STAT1 protein (unphosphorylated) (human) (UniProt P42224); assay: ITC; both purified
[7] = target: STAT1 (endogenous, human cell lines) (human (endogenous in 2fTGH, U6A, HEK 293T)) (UniProt P42224); assay: pull-down

Molecule	binding [2]	further results
STAT1 (endogenous, human cell lines) (from UniProt P42224 1-750)	binds	binding [1]: no binding
STAT1 produced in a cell-free system (from UniProt P42224 1-750)	–	binding [3]: binds
V5-STAT1 (1-684) (from UniProt P42224 1-684) (domain or fragment)	binds	–
V5-STAT1 (1-712) (from UniProt P42224 1-712)	binds	–
V5-STAT1 (from UniProt P42224 1-750)	binds	–
V5-STAT2 (from UniProt P52630 1-851)	no binding	–
V5-STAT3 (control of the chimera experiment, Figure 5D) (from UniProt P40763 1-770)	no binding	–
V5-STAT3 (human) (from UniProt P40763 1-770)	no binding	–
V5-STAT3^Q635H (human) (from UniProt P40763 1-770)	binds	–
V5-STAT5A (from UniProt P42229 1-794)	no binding	–
V5-STAT5B (from UniProt P51692 1-787)	no binding	–
IRF9 (endogenous) (protein, UniProt Q00978 1-393) MASGRARCTRKLRNWVVEQVESGQFPGVCWDDTAKTMFRIPWKHAGKQDFREDQDAAFFKAWAIFKGKYKEGDTGGPAVWKTRLRCALNKSSEFKEVPERGRMDVAEPYKVYQLLPPGIVSGQPGTQKVPSKRQHSSVSSERKEEEDAMQNCTLSPSVLQDSLNNEEEGASGGAVHSDIGSSSSSSSPEPQEVTDTTEAPFQGDQRSLEFLLPPEPDYSLLLTFIYNGRVVGEAQVQSLDCRLVAEPSGSESSMEQVLFPKPGPLEPTQRLLSQLERGILVASNPRGLFVQRLCPIPISWNAPQAPPGPGPHLLPSNECVELFRTAYFCRDLVRYFQGLGPPPKFQVTLNFWEESHGSSHTPQNLITVKMEQAFARYLLEQTPEQQAAILSLV	–	binding [4]: no binding
V5-STAT4 (protein, UniProt Q14765 1-748) MSQWNQVQQLEIKFLEQVDQFYDDNFPMEIRHLLAQWIENQDWEAASNNETMATILLQNLLIQLDEQLGRVSKEKNLLLIHNLKRIRKVLQGKFHGNPMHVAVVISNCLREERRILAAANMPVQGPLEKSLQSSSVSERQRNVEHKVAAIKNSVQMTEQDTKYLEDLQDEFDYRYKTIQTMDQSDKNSAMVNQEVLTLQEMLNSLDFKRKEALSKMTQIIHETDLLMNTMLIEELQDWKRRQQIACIGGPLHNGLDQLQNCFTLLAESLFQLRRQLEKLEEQSTKMTYEGDPIPMQRTHMLERVTFLIYNLFKNSFVVERQPCMPTHPQRPLVLKTLIQFTVKLRLLIKLPELNYQVKVKASIDKNVSTLSNRRFVLCGTNVKAMSIEESSNGSLSVEFRHLQPKEMKSSAGGKGNEGCHMVTEELHSITFETQICLYGLTIDLETSSLPVVMISNVSQLPNAWASIIWYNVSTNDSQNLVFFNNPPPATLSQLLEVMSWQFSSYVGRGLNSDQLHMLAEKLTVQSSYSDGHLTWAKFCKEHLPGKSFTFWTWLEAILDLIKKHILPLWIDGYVMGFVSKEKERLLLKDKMPGTFLLRFSESHLGGITFTWVDHSESGEVRFHSVEPYNKGRLSALPFADILRDYKVIMAENIPENPLKYLYPDIPKDKAFGKHYSSQPCEVSRPTERGDKGYVPSVFIPISTIRSDSTEPHSPSDLLPMSPSVYAVLRENLSPTTIETAMKSPYSAE	–	binding [4]: binds
GB1-018^AGA (018 with 17-HGH-19 mutated to 17-AGA-19, fused to GB1) (protein) MSSKGGSSGGMWSVFIAGADGSNKGSKTYTSGGGGMWGGGSSSGVKSGVNGGVKSGTGKI	–	binding [5]: no binding (tested: 100 μM 018AGA titrated into 10 μM STAT1)
GB1-018^AGA (protein, UniProt P17356 1-60) MSSKGGSSGGMWSVFIAGADGSNKGSKTYTSGGGGMWGGGSSSGVKSGVNGGVKSGTGKI	–	binding [6]: no binding (tested: 100 μM GB1-018^AGA into 10 μM U-STAT1)
GB1-018 (natural protein) MSSKGGSSGGMWSVFIHGHDGSNKGSKTYTSGGGGMWGGGSSSGVKSGVNGGVKSGTGKI	–	binding [7]: binds
